# ± gives the standard deviation of the averaged measurements. The list shows a part of the results.
# Test system: PfAP2-EXP AP2 domain (GST-tagged)
# Assay: gcPBM binding intensity (ln(normalized median fluorescence intensity)); higher = stronger DNA binding
# Outline: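 Binding of GST-tagged P. falciparum DNA-binding domains, expressed in E. coli and used at about 25 μg on average, was carried out for 1 h in 1× PBS containing 1% milk, 0.2 mg/ml BSA, 0.5% salmon testes DNA and 0.03% Triton X-100. The target was an Agilent 4 × 180k array of primer-extended double-stranded 36-bp intergenic genomic probes plus negative controls, read with Alexa488 anti-GST antibody at 488 nm. Binding intensity is the highest Masliner-normalised natural-log median intensity across replicate spots of either probe orientation.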
row,Sequence,gcPBM binding intensity (ln)
1,ATTATTCATTTATGTAGTACATTTTAATACATTTAA [XGTACX_site3599],8.53 ± 0.39
2,ATAAAAAAAAATAAATGTACAAATTAACAAAATAAT [XGTACX_site5048],8.79 ± 0.48
3,AATCACCAAATATGTACACACCTTAACATGTTTATA [CACACA_site5180],8.95 ± 0.33
4,TGTGAATAAATAAGCACACATAAACCCATATATAAA [CACACA_site4103],8.76 ± 0.49
5,ATCTAAACAAATAATACACACAATAAAATAGGAAGA [CACACA_site4072],8.92 ± 0.48
6,TAATATTTACATATTACACACACGTATTATTAAATA [CACACA_site6340],8.33 ± 0.41
7,TATTTTTTAAAAATGGGTACACATAAATAAATAAAT [XGTACX_site7643],8.87 ± 0.4
8,ATACACACTCAAAAAAGTACTTAACTACATGAATTG [XGTACX_site6366],8.64 ± 0.15
9,CTCAAAGGAATATTCACACATAAATTATAGACTACA [CACACA_site6050],8.68 ± 0.77
10,TAATTATATTCACTTGCTATATAAATTATATATATT [CACACA_negctrl_site526],8.36 ± 0.43
11,AAGAAAAAAATATATGTTTATTTACTTTAATAATTT [TGCATGCA_negctrl_site168],8.04 ± 0.39
12,GTATATATATATATATGCAAATGTATAAATCTACAT [CACACA_negctrl_site546],8.46 ± 0.36
13,TATATATAAATATGCTGTACGTTTTAATACGTTAAG [XGTACX_site2378],8.44 ± 0.13
14,GATAAATTAAAACACACACACATATATATATATATA [CACACA_site3962],10.1 ± 0.39
15,AAAAAAATAGTCTTCTTGCACTTTTTAATTTATTTT,8.38 ± 0.19
16,TTATAATAAAATGAATATATATAATTTAAAATATTT [CACACA_negctrl_site1651],8.14 ± 0.45
17,AAAAAAAGTTATATTACACACTTTATTCGTTAACTT [CACACA_site3013],8.44 ± 0.42
18,ATATTTATGAAGTTCACACATATATATATATATATA [CACACA_site5954],10.3 ± 0.52
19,ACAACAATATTTGAATGTACTCTATTTTCGTTGTTC [XGTACX_site593],8.69 ± 0.52
20,TTTCTTCATTTTTTCACACATAAGAAAATATAATCA [CACACA_site4275],8.46 ± 0.46
21,AAGGAAAACAATAGGTGTACCAAACGTCCTAGGAAC [XGTACX_site5732],8.96 ± 0.45
22,TAAAAAAATAAAATTACACACATATATAAATATATA [CACACA_site2620],8.2 ± 0.28
23,AAAAAAGCAATATGATGTACATTTACTTTGTGAAAG [XGTACX_site4450],8.54 ± 0.46

row,Sequence,gcPBM binding intensity (ln)
1,AAATATTATAAAAAGGTGCATTTTTATTATATGAGT,8.81 ± 0.085
2,TTTTGTTATAATAAAGTGCATTTAGTCGGGTTACAA [GTGCAC_site9779],8.66 ± 0.13
3,ATATATAAATATATTTGTACATATAATATGTATTAT [XGTACX_site8820],8.49 ± 0.35
4,CTAGGTATGCTTTAAACATGCAAAAATACAAATTAC [TGCATGCA_site239],8.88 ± 0.39
5,ATATATGTTTTTATATGTACTTATAATGTGTGTATA [XGTACX_site5165],8.62 ± 0.38
6,AATTTAAAAAAAATCACACACAGAAAAAAAAAAAAA [CACACA_site2322],8.46 ± 0.54
7,TTCTGACCAATGCTATAAAATAATACAAAAGAAAAA [GTGCAC_negctrl_site3],8.47 ± 0.54
8,TGAAGAGGAAACAAACAAAATGAATAATTAAAAAGG [CACACA_negctrl_site1601],8.76 ± 0.48
9,TATATCCACATTTTTAGTACTTAAAAATAAATAAAC [XGTACX_site3826],8.56 ± 0.21
10,ATATAACATAGACACACACACATATAAATATATTAT [CACACA_site7865],8.7 ± 0.41
11,CTTTATAAAATAAGAGTGCGTTATATTGAATTGTAT [GTGCAC_site9390],8.685 ± 0.064
12,ATATAAGATTTAAGAAGTACAATTATACAGTAGATC [XGTACX_site7501],8.79 ± 0.32
13,GAATAAATTAAAAATGCACACTTTGATGGGTACATT [CACACA_site5220],8.26 ± 0.16
14,ACGTTTTATAATTAATGTACAAATATTAAAATTGCA [XGTACX_site7869],8.65 ± 0.23
15,TTATTTATTTTAAATTCACACATCGTGCTATTATAT [CACACA_site5003],8.31 ± 0.28
16,TCATATATTTATGTATGTACATATATATATAGATTA [XGTACX_site380],8.16 ± 0.38
17,TATGAATGGTTAAGTACACACATATTAAGATATGTA [CACACA_site5852],8.22 ± 0.35
18,TATATTTGCAGTAATAATAATTATTATAAAAGATAA [XGTACX_negctrl_site547],8.66 ± 0.4
19,AAAAATATAATATAATGTACACAAAAAAAAAAATTC [XGTACX_site3657],8.62 ± 0.49
20,TTTTTATAACGTAATAAATAAAACGTCTATACTATA [XGTACX_negctrl_site176],8.34 ± 0.45
21,TAAAGATATTATTTTTGTACATATTGATATAATGAA [XGTACX_site6571],8.29 ± 0.52
22,TATATTATTATAATTTGTACATATCTAATTATATAT [XGTACX_site5342],8.44 ± 0.49
23,AATTAGACATAATATACACACATATATTATAGATAT [CACACA_site7297],8.43 ± 0.34

row,Sequence,gcPBM binding intensity (ln)
1,AATGATAATATTTCCTTCTTTTTTACTTCTTTCTTT [CACACA_negctrl_site776],8.73 ± 0.58
2,AAAATGGTTTATAAATGTACATATATTATATATAAC [XGTACX_site7959],8.68 ± 0.38
3,CCTATCCAGACATATACACACATATCTATTTATATA [CACACA_site5001],8.73 ± 0.43
4,TTTACTTTCCCAAGTTGTACTGCTTCTAAGCTTTTT [XGTACX_site2708],8.78 ± 0.54
5,TATAAAAAATAATACACACACATGGCGACAAAATAA [CACACA_site2420],9.07 ± 0.45
6,CATATAAAATAATTCACACAAATATACAAATACCCA [CACACA_site5340],8.64 ± 0.5
7,TATTTAATTTTTAAATGTACATATAAAATAATATAT [XGTACX_site2422],8.62 ± 0.4
8,AAAAAAAATTTCTTCTGTACGCATAAATTTTTATTA [XGTACX_site8721],8.54 ± 0.26
9,TTTTTCAGAAAAGAAACACACATATATATATTTATA [CACACA_site2372],8.46 ± 0.4
10,ATTATTTTTTTTGAAGTGCAATATTATTTTTAATCA,8.45 ± 0.18
11,TATATTTTTATGTGTGTGCACAAAATAACAAAATAT [GTGCAC_site9596],9.03 ± 0.014
12,CAATTCAATATATATACACACACACTATTAATAATT [CACACA_site9256],8.52 ± 0.41
13,TATACTACCCAGAGCTGTACAAAATAATAATAAGTT [XGTACX_site1045],8.84 ± 0.52
14,ATGGTTATATTTGAAGTGCAAAAAAAAATATATGTA,8.9 ± 0.35
15,ATGTGGATTTTATAATGTACATATGATATTATTTTG [XGTACX_site7930],8.43 ± 0.36
16,GTTAAGTGGATATATACACACATATGCAATACATGA [CACACA_site7427],8.81 ± 0.5
17,ATTCCTTTATTATCACGTACTTATAAAATATAGTAT [XGTACX_site7498],9.01 ± 0.38
18,TTTTTCATTTAGCTTTTACACACTATATATTATTGA [CACACA_site7888],8.85 ± 0.4
19,TTTTAATAAATCATTTTCCTAATATTTATATTTGCT [TGCATGCA_negctrl_site232],8.2 ± 0.13
20,TTAAATAAAATAAAAACATGCACACTTTATTTTTTT [TGCATGCA_site719],8.5 ± 0.24
21,TTATATATATATTGTTCACACATAATATAAATATTT [CACACA_site5835],8.21 ± 0.32
22,ATAAACAGATAAAAGGGTACACACATATATACATGT [XGTACX_site452],8.84 ± 0.36
23,CTCTTTTCTTATAATACACACAGTAATATTTATATA [CACACA_site6824],8.81 ± 0.28

row,Sequence,gcPBM binding intensity (ln)
1,AATAAAAAAAATTTCTGTACATATATTTATTATATA [XGTACX_site1883],8.28 ± 0.41
2,CAAACCCACCAACACACACACACAAAAATGATTAAA [CACACA_site2432],8.49 ± 0.68
3,GAAGATATATAATAATTCATAGTTTTTTAATTTAAA [TGCATGCA_negctrl_site295],8 ± 0.52
4,ATATATTTTGATTGCACACAGAATTTAAATCATGAT [CACACA_site2343],8.56 ± 0.3
5,TACTTTTTTATTTGGTGTACAAATAAAATCATAATG [XGTACX_site1802],8.655 ± 0.049
6,AAAATAAAAAAAATAAATAAAAAAAATAATAATAAA [CACACA_negctrl_site563],8.28 ± 0.49
7,TCATAAATATAAAGTGTGCACTTGAATAATATGTAT,8.83 ± 0.057
8,TAAATAAATCTGTGCTTGCACTTTTTTTGTTATTTT,8.27 ± 0.28
9,ATATAAACATATAATAGTACACTTCGATAATTTTAT [XGTACX_site3321],8.38 ± 0.29
10,GTACCATCAAAATAAATATATATATATATATATTTT [GTGCAC_negctrl_site646],8.44 ± 0.33
11,ATTTAACATATAAAATGTACATATATATATATATTT [XGTACX_site2525],8.45 ± 0.25
12,GAGCCCAAAAAATTAGGTACGTATAAAGAGGTATTT [XGTACX_site5348],8.58 ± 0.49
13,TTTCTTTTTTCTTCAGTGCATTAAAATTAACAAAAG,8.86 ± 0.18
14,TTTGTGTTGTATTTTTGTACATAAAATAAACTTAAA [XGTACX_site4637],8.51 ± 0.38
15,TCTTTTTTCATATTTTCACACATGTCTTTATATTTA [CACACA_site6025],9.14 ± 0.37
16,CATATATATATTGGAAGTACATATTTAATATTCATT [XGTACX_site3545],8.63 ± 0.23
17,AGGAAAATTTTATTTGCACACATTATTACGTCTAAA [CACACA_site2337],8.44 ± 0.24
18,ACATGTAATATAATGTGTACATATACAAAGGTATAT [XGTACX_site4145],8.57 ± 0.28
19,ATAAAGTATATTATATGTACATATATATATTATATA [XGTACX_site1345],8.3 ± 0.28
20,AGATGAGAAATATATACACACAATAATACCTATTTA [CACACA_site876],8.27 ± 0.21
21,TGGGTATATATAAAAGGTACACAAAATGAAGATATA [XGTACX_site4994],8.98 ± 0.52

# Source: the supplement of paper PMC11417369
